Laboratory results as given in paper PMC4336329 (PLoS ONE, 2015).
The campaign covered roughly 310,000 compounds. About 2,200 (0.71%) showed an effect of 50% or more. The effect is printed as a negative number. The list shows a part of the results.

Biological target: human ether-à-go-go-related gene (hERG) potassium channel (human, UniProt Q12809)
Assay: primary screen, population patch clamp on CHO cells stably expressing hERG

Sequence of human ether-à-go-go-related gene (hERG) potassium channel (Q12809 whole entry, looked up): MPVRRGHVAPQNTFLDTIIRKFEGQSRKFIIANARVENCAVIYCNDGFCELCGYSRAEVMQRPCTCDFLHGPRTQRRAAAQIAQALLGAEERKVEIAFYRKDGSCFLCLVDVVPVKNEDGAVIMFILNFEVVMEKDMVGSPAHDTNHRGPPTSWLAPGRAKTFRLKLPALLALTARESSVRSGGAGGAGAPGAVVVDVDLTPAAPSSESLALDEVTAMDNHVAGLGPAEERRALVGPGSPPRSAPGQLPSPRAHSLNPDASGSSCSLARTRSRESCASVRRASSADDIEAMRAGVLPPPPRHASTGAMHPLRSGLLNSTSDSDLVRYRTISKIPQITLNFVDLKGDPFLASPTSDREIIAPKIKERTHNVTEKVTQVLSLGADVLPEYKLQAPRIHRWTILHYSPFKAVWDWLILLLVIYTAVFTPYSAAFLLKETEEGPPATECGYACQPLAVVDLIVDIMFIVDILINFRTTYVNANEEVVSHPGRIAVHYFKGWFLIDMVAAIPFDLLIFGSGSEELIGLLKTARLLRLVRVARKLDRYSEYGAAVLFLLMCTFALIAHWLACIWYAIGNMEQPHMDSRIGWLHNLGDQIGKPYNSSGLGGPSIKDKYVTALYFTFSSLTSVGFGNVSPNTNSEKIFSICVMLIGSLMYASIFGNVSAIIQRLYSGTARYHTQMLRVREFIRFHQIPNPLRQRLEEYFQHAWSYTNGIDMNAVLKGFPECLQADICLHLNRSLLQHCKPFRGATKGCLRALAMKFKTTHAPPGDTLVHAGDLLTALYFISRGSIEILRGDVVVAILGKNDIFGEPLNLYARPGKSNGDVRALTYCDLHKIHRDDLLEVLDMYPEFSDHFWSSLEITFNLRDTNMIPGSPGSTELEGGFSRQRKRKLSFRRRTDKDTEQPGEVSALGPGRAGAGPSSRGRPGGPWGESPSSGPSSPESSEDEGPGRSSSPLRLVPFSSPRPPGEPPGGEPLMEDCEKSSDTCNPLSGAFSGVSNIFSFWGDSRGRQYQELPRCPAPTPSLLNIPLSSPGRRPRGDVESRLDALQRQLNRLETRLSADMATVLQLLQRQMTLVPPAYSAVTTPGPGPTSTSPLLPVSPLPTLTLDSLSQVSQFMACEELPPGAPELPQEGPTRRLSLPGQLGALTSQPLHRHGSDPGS

SMILES	hERG current change (%, negative = inhibition) at 1uM [%]
C=CCn1c(CCCNC(=O)C(C)(C)C)nc2ccccc21	13.6
C/C(=N\NC(=O)CSc1nnc(C)s1)c1ccc(O)cc1	11.2
CCC/C=C(\CCC)C(NS(=O)(=O)c1cccc2cccnc12)c1ccc(C(=O)OC)cc1 (stereo not drawn)	12.9
CC(/C=C1\SC(=S)N(C(C(=O)O)C(C)C)C1=O)=C\c1ccccc1 (stereo not drawn)	9.28
O=C(NCCN1CCN(Cc2ccccc2)CC1)Nc1cc(Cl)cc(Cl)c1	-15.5
COc1ccc(CCNC(=O)Cn2ccc3cc(S(=O)(=O)N4CCCC4)ccc32)cc1OC	4.41
COC(=O)NCC(c1cccnc1)N1CCN(c2ccccc2F)CC1 (stereo not drawn)	7.13
CCOc1ccc(S(=O)(=O)N2CCN(Cc3ccccc3)CC2)cc1	14.6
CN(C)/C=C1\C(=O)N(c2ccc(Oc3ccccc3)cc2)CS1=O (stereo not drawn)	-1.41
O=C(CSc1nnc(-c2ccco2)n1Cc1ccccc1)OC1CCCCC1	-8.46
CCC(CC)=N/N=C/c1c(O)n(CC)c2cc(C3=NNC(=O)CC3)ccc12	16.1
COc1ccc(NC(=O)CSc2ccccn2)cc1	18
Cc1cc(NC(=O)c2cccc(S(=O)(=O)N3c4ccccc4CC3C)c2)no1 (stereo not drawn)	-7.64
Cc1cc(N2CCN(c3cccc(C)c3C)CC2)nc(-c2ccccc2)n1	-4.61
Cc1nc(C)n(C(C)CNS(=O)(=O)c2ccc(Cl)cc2)n1 (stereo not drawn)	11.7
CCc1ccccc1NS(=O)(=O)c1ccc2[nH]cc(C(=O)NCC3CCCO3)c(=O)c2c1 (stereo not drawn)	6.57
O=C1CCC(C(=O)OCc2c(Cl)cccc2Cl)N1 (stereo not drawn)	9.54
O=C(NNS(=O)(=O)c1ccc([N+](=O)[O-])cc1)c1cnn(-c2ccccc2)c1-n1cccc1	6.21
COc1cccc(C(=O)N2CCOCC2)c1OC	11

SMILES	hERG current change (%, negative = inhibition) at 1uM [%]
COC(=O)C1CN(C#N)N(c2ccc(Cl)cc2)C12c1ccccc1-c1ccccc12 (stereo not drawn)	13.4
COc1ccc(C(=O)c2sc3nc(C)cc(-c4cccs4)c3c2N)cc1OC	6.28
CCCC(=O)NC(=S)Nc1ccc(N2CCN(C(=O)c3cccs3)CC2)cc1	14
CN(C)N1C(N)=C(C#N)C(c2ccsc2)C2=C1CC(C)(C)CC2=O (stereo not drawn)	7.75
CCC(C)c1ccccc1NC(=O)c1cccnc1 (stereo not drawn)	12.6
O=C(/C=C/c1ccc(OC(F)F)cc1)OCC(=O)N1CCC(c2ccccc2)=N1	1.59
CCn1c(C)[n+](CC(O)COCC2CC=CCC2)c2ccccc21.[I-] (stereo not drawn)	13.4
NC(=O)c1cccc(NC(=O)Nc2ccc(Cl)cc2)c1	20.2
CC/C(=N\NC(=S)Nc1cc(C)ccc1C)c1ccc(OC(F)F)cc1	2.88
COC(=O)Nc1nn(Cc2ccccc2F)cc1Br	26.5
CCc1ccc(CN(C)C(=O)c2cc(COc3ccc(-n4cncn4)cc3)on2)cc1	-9.83
O=C(N/N=C/c1ccc([N+](=O)[O-])cc1)c1[nH]ncc1Br	9.98
Cc1cc(OCC(=O)Nc2ccccc2F)nc(C(C)C)n1	2.94
Cc1oc(-c2ccc(Cl)cc2)nc1CS(=O)CC(=O)NCCN1CCCC1 (stereo not drawn)	7.33
CCN(CCCNC(=O)Cn1cc2c(n1)CCCC2)c1cccc(C)c1	7.33
Cc1ccc(NC(=O)C2=C(C(=O)O)CCCC2)cc1Br	15.6
COc1cccc2cc(-c3nnc(SCC(=O)Nc4nc(C)cs4)n3C)oc12	9.62
O=C(c1ccccc1)N1CCCC(C(=O)N2CCCCC2)C1 (stereo not drawn)	13.7
Cc1cccc(NC(=O)c2cc[n+]([O-])cc2)c1C	9.08

SMILES	hERG current change (%, negative = inhibition) at 1uM [%]
CCOCCCNC(=O)c1oc2ccc3c(c2c1C)C(O)CC(C)(C)O3 (stereo not drawn)	14.4
Oc1cccc(-c2nc3c4c(ncn3n2)-c2ccccc2CC42CCCC2)c1	-12.1
CCOc1cc2[nH]c(=O)n(CCCC(=O)N(C)Cc3ccccc3)c(=O)c2cc1OCC	1.42
CCC1(c2ccc(-c3ccccc3)cc2)C(=O)NC(=O)NC1=O	11.9
O=C(N=C1SCC(=O)N1c1ccccc1)c1ccco1	-1.23
O=C(O)C1=C(C(=O)Nc2cc(C(F)(F)F)ccc2Cl)CCCC1	15.7
COc1ccccc1/C=C(/C(=O)OCC(=O)Nc1ccccc1C)c1ccccc1	7.02
O=C(CSc1ccccn1)Nc1ccc2c(c1)OCO2	12.3
O=C1CCCCN1CCC(=O)N1CCCC(N2CCN(c3ccccc3)CC2)C1 (stereo not drawn)	-3.37
CCC1CCCCN1C(=O)c1ccc(OC2CCN(Cc3ccccn3)CC2)cc1 (stereo not drawn)	14.3
NC(=O)C1CCN(C(=O)CN2CCCc3ccccc32)CC1	18.6
O=C(Nc1ccc(Cl)cc1)c1ccsn1	13.8
Cl.NC(=O)C1CCN(C(c2ccccc2F)c2nnnn2Cc2ccco2)CC1 (stereo not drawn)	11.9
O=C(NCCCO)NC12CC3CC(CC(C3)C1)C2	0.0711
COc1ccc(C(=O)NCc2ccccn2)cc1[N+](=O)[O-]	5.37
CCN1C(=S)N[C@@H](CCc2ccccc2)[C@H](C(=O)OC)[C@H]1C	11.6
Cc1n[nH]c(=S)n(NC(=O)CC(=O)Nn2c(=S)[nH]nc(C)c2=O)c1=O	28.9
CCCNC(=O)NC(=O)c1cnccc1C(F)(F)F	16.9
CCN(CC)S(=O)(=O)c1cccc(C(=O)OCC(=O)c2ccc3c(c2)NC(=O)CO3)c1	5.12
